# About 1,200 (2.5%) of roughly 48,000 compounds were called active. Roughly 2% stayed inconclusive and do not appear here.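 How the source made its calls: active means activation of at least 60% and not above a set upper limit (about 1 call in 100 departs from these limits); inconclusive means activation of 40% to 60%, or above that upper limit; inactive means activation under 40%.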 This is one part of the list.
# Target: Probable G-protein coupled receptor 32 (Homo sapiens) (UniProt O75388)
# Experiment: qHTS for Agonists of Human Resolvin D1 Receptor DRV1; further: 0% is about no effect
# Conditions: CHO-K1 GPR32 beta-arrestin PathHunter luminescence, 90 min; at 76.9 µM; stronger effect = higher value; zero percent set by DMSO-only wells
# Summary of the method: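 CHO-K1 cells stably expressing ProLink-tagged GPR32 and Enzyme Activator-tagged beta-arrestin were seeded at 2,500 cells/well overnight, exposed to compounds for 90 min at 37 °C, then read by beta-Gal complementation chemiluminescence after 1 h detection reagent.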
# UniProt O75388, sequence (O75388 whole entry, looked up): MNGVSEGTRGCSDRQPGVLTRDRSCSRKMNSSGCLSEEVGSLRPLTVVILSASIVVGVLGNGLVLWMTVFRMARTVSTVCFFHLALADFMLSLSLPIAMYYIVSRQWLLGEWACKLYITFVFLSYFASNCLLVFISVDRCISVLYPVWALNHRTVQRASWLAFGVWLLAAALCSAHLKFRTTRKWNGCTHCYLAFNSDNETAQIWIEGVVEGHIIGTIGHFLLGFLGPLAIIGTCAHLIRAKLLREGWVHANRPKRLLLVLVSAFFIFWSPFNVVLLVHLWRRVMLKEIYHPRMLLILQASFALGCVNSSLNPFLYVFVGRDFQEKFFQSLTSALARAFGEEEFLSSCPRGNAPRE
row,Compound,activation
1,CCN1CCN(Cc2c(O)ccc3oc(C)c(C(=O)Nc4cccc(Cl)c4C)c23)CC1,inactive: -8.85%
2,FC(F)(F)c1cccc(N2CCN(c3ncnc4c3nc3n4CCCC3)CC2)c1,inactive: 17.9%
3,CCC(C)NC(=O)c1cc(Sc2cccc(Cl)c2)nc2ccccc12 (stereo not drawn),inactive: 20.3%
4,CN1CCN(CCC(=O)N2c3ccccc3Sc3ccc(C(F)(F)F)cc32)CC1,inactive: 26.2%
5,CC1(C)S[C@@H]2[C@H](NC(=O)C(c3ccccc3)S(=O)(=O)O)C(=O)N2[C@H]1C(=O)O (stereo partly drawn),inactive: -13.1%
6,CC(C)N(Cc1ccccc1)C(=O)c1nc(-c2ccc(Cl)cc2)n2c1CCCCC2,inactive: 38.7%
7,CCc1ccc(OCC2c3cc(OC)c(OC)cc3CCN2C(=O)c2ccc(S(=O)(=O)N3CCCC3)cc2)cc1 (stereo not drawn),inactive: -7.53%
8,CCOC(=O)c1cnc2c(ccc3ccccc32)c1Nc1ccc(N(C)C)cc1,inactive: -32.3%
9,CCn1cc(C(=O)NCCCOC(C)C)c(=O)c2cc(S(=O)(=O)N3CCOCC3)ccc21,inactive: -6.87%
10,O=C(Cn1ccc2cc(S(=O)(=O)N3CCCCCC3)ccc21)NCc1ccccc1Cl,inactive: 11%
11,COc1cccc(NC(=O)c2c(C)nn(-c3cccc(C)c3)c2-n2cccc2)c1,inactive: -16.1%
12,COc1cccc(CN2C(=O)CN(C3CCCCC3)C(=O)C2c2ccc(OC(C)C)c(OC)c2)c1 (stereo not drawn),inactive: -24.6%
13,Cc1cc(NC(=O)N2CCC(CN3CCCCCC3)CC2)ccc1Br,inactive: -19.7%
14,COC(=O)c1ccc2c(=O)n(CCCCCC(=O)NCCc3ccccc3)c(=O)[nH]c2c1,inactive: -18.1%
15,O=S(=O)(c1ccc(Cl)cc1)c1nnn2c1nc(NC1CCCC1)c1sccc12,inactive: -11.5%
16,CCC1Sc2ccccc2N(CC(=O)NCc2ccc(C)cc2)C1=O (stereo not drawn),inactive: -9.07%
17,CN(CCOc1ccc(CC2SC(=O)NC2=O)cc1)c1ccccn1 (stereo not drawn),inactive: 10.4%
18,O=C(CSc1nc2c([nH]c3ccccc32)c(=O)n1-c1ccccc1)Nc1ccc2c(c1)OCO2,inactive: -52%
19,Nc1c(C(=O)Nc2ccccc2Br)sc2nc(-c3cccs3)ccc12,inactive: -10.3%
20,COc1ccc(-c2nc(Cn3c(=O)cc(C)c4c(C)nn(-c5ccccc5)c43)c(C)o2)cc1OC,inactive: -7.66%
21,COc1ccc(C)cc1-n1c(-c2ccc(Cl)cc2)cc2c1CC(C)(C)CC2=O,inactive: -1.79%
22,Cc1noc2ncnc(N3CCN(c4cccc(C(F)(F)F)c4)CC3)c12,inactive: 9.35%
23,Cc1cccn2c(=O)c3cc(C(=O)NCC(C)C)sc3nc12,inactive: 3.18%
24,COc1ccc(N2CCN(C(CNS(=O)(=O)c3ccc(OC)c(C)c3)c3ccco3)CC2)cc1 (stereo not drawn),inactive: -33.5%
25,O=C(CCn1c(=O)c2ccccc2n(Cc2cccc(F)c2)c1=O)NCc1ccc2c(c1)OCO2,inactive: 2.82%
26,CCOc1ccc(CN2CCN(Cc3ccc4c(c3)c3ccccc3n4CC)CC2)cc1,inactive: -9.13%
27,CCc1nn(CC(=O)NCc2ccc(C)cc2)c(=O)c2cc3occc3n12,inactive: -17.2%

row,Compound,activation
1,Cc1ccc(-c2c(C(=O)N3CCN(c4ccc(F)cc4)CC3)oc(=O)c3ccccc23)cc1,inactive: -5.9%
2,COc1cc(OC)c(OC)cc1CN1CCc2nc(N3CCN(C)CC3)ncc2C1,inactive: -1.19%
3,Cc1cc(C)cc(N2C(=O)N(Cc3cc(=O)n4ccccc4n3)c3ccccc3S2(=O)=O)c1,inactive: -29.1%
4,CCOc1ccc(C(=O)/C=C/c2cn(CC(O)CN3CCc4ccccc43)c3ccccc23)cc1 (stereo not drawn),inactive: -15.2%
5,COc1ccc(N2CCN(c3nc4ccc(C(=O)c5ccccc5)cc4n4cnnc34)CC2)cc1,inactive: -27.5%
6,Cc1cccc2c1-c1sc(C(=O)NCCCN3CCN(c4ccccc4F)CC3)cc1CO2,inactive: 19.7%
7,O=C(CCS(=O)(=O)c1nc(-c2ccc3c(c2)OCO3)cc(C(F)(F)F)n1)Nc1ccc(Br)cc1,inactive: -36.4%
8,CCOC(=O)c1c(C)n(C)c2ccc(O)cc12,inactive: -1.96%
9,Cc1ccc(NC(=O)c2oc3ccc(S(=O)(=O)N4CCOCC4)cc3c2C)c(C)c1,inactive: 2.59%
10,COc1ccc(CNC(=O)Cc2coc3ccc(C)cc23)cc1,inactive: -13.3%
11,COc1ccc(NC(=O)Cc2c(C(=O)O)[nH]c3ccccc23)cc1OC,inactive: 6.44%
12,COC(=O)c1cccnc1-n1c(=O)c2cccnc2n(CC(=O)Nc2cccc(C)c2)c1=O,inactive: 0.301%
13,COc1ccc(C(=O)Nc2ccc3nc4c(c(Nc5ccccc5OC)c3c2)CCCC4)c(OC)c1,inactive: -9.76%
14,COc1cc(C2c3c(oc4ccc(F)cc4c3=O)C(=O)N2Cc2ccc3c(c2)OCO3)ccc1O (stereo not drawn),inactive: -4.7%
15,O=C1CC(c2c(F)cccc2Cl)c2c(ccc3ccccc23)N1 (stereo not drawn),inactive: 13.5%
16,CCCCN(CC)C(=O)c1c[nH]c2ccc(S(=O)(=O)N(C)c3ccc(Cl)cc3)cc2c1=O,active: 91.5%
17,CC(C)Oc1ccc(CNC(=O)c2ccc3c(c2)nc2n3CCOC2)cc1,inactive: -0.491%
18,COc1cc(NC(=O)N2CCSc3ccccc32)cc(OC)c1OC,inactive: -30.3%
19,Nc1cc(-c2ccncc2)c[nH]c1=O,inactive: 37.1%
20,CCN(c1ccccc1C)S(=O)(=O)c1nnc(NC(=O)c2ccccc2C)s1,inactive: -4.9%
21,CC(CNC(=O)c1ccc(Cn2c(=O)c3cccn3c3cccnc32)cc1)c1ccccc1 (stereo not drawn),inactive: -22.1%
22,COc1ccc(-c2c(C)c3cc(OC(=O)N4CCOCC4)ccc3oc2=O)cc1OC,inactive: 1%
23,NC(=O)Cn1c(=O)n(CCCCCC(=O)NCc2ccc3c(c2)OCO3)c(=O)c2sccc21,inactive: -12.5%
24,COc1cccc(C(=O)CC2(O)C(=O)N(Cc3ccccc3)c3ccccc32)c1 (stereo not drawn),inactive: -21.3%
25,CCOc1cc2[nH]c(=O)n(CCCCC(=O)N3CCN(c4ccccc4OC)CC3)c(=O)c2cc1OCC,inactive: -6.57%
26,COc1ccc(NC(=O)c2nnn(CC(=O)Nc3ccc(C)c(C)c3)c2N)cc1OC,active: 91%
